# Laboratory results from the supplement of paper PMC8728848.
# The other results are listed elsewhere or left out.
# What was measured:
# Assay in all cases: glycan array binding signal (z-score within array); higher = stronger binding
# Conditions in all cases: glycan notation: IUPAC condensed, linker removed
# [1] = target: Neu5Ac(a2-6)Gal(b1-3)GlcNAc(b1-3)[Gal(b1-4)GlcNAc(b1-6)]Gal(b1-4)Glc
# In short: (§1)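 Negative Z-scores can be read as non-binding. The Z-score is calculated within each array and then averaged across arrays of one protein sequence at different concentrations or buffers and across linkers. Arrays, 3228 in all, were curated from the Consortium for Functional Glycomics database and kept only where the protein sequence was available.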
# [2] = target: Neu5Ac(a2-6)Gal(b1-4)Glc
# In short: as §1
# [3] = target: Neu5Ac(a2-6)Gal(b1-4)GlcNAc
# In short: as §1
# [4] = target: Neu5Ac(a2-6)Gal(b1-4)GlcNAc(b1-2)Man
# In short: as §1
# [5] = target: Neu5Ac(a2-6)Gal(b1-4)GlcNAc(b1-2)Man(a1-3)Man(b1-4)GlcNAc(b1-4)GlcNAc
# In short: as §1
# [6] = target: Neu5Ac(a2-6)Gal(b1-4)GlcNAc(b1-2)Man(a1-3)[Gal(b1-4)GlcNAc(b1-2)Man(a1-6)]Man(b1-4)GlcNAc(b1-4)GlcNAc
# In short: as §1
# [7] = target: Neu5Ac(a2-6)Gal(b1-4)GlcNAc(b1-2)Man(a1-3)[GlcNAc(b1-2)Man(a1-6)]Man(b1-4)GlcNAc(b1-4)GlcNAc
# In short: as §1
# [8] = target: Neu5Ac(a2-6)Gal(b1-4)GlcNAc(b1-2)Man(a1-3)[GlcNAc(b1-4)][Neu5Ac(a2-6)Gal(b1-4)GlcNAc(b1-2)Man(a1-6)]Man(b1-4)GlcNAc(b1-4)GlcNAc
# In short: as §1
# [9] = target: Neu5Ac(a2-6)Gal(b1-4)GlcNAc(b1-2)Man(a1-3)[Man(a1-6)]Man(b1-4)GlcNAc(b1-4)GlcNAc
# In short: as §1
# [10] = target: Neu5Ac(a2-6)Gal(b1-4)GlcNAc(b1-2)Man(a1-3)[Neu5Ac(a2-3)Gal(b1-4)GlcNAc(b1-2)Man(a1-6)]Man(b1-4)GlcNAc(b1-4)GlcNAc
# In short: as §1
# [11] = target: Neu5Ac(a2-6)Gal(b1-4)GlcNAc(b1-2)Man(a1-3)[Neu5Ac(a2-6)Gal(b1-4)GlcNAc(b1-2)Man(a1-6)]Man(b1-4)GlcNAc(b1-4)GlcNAc
# In short: as §1
# [12] = target: Neu5Ac(a2-6)Gal(b1-4)GlcNAc(b1-2)Man(a1-3)[Neu5Ac(a2-6)Gal(b1-4)GlcNAc(b1-2)Man(a1-6)]Man(b1-4)GlcNAc(b1-4)[Fuc(a1-6)]GlcNAc
# In short: as §1
# [13] = target: Neu5Ac(a2-6)Gal(b1-4)GlcNAc(b1-2)Man(a1-6)Man(b1-4)GlcNAc(b1-4)GlcNAc
# In short: as §1
# [14] = target: Neu5Ac(a2-6)Gal(b1-4)GlcNAc(b1-2)Man(a1-6)[Gal(b1-4)GlcNAc(b1-2)Man(a1-3)]Man(b1-4)GlcNAc(b1-4)GlcNAc
# In short: as §1
# [15] = target: Neu5Ac(a2-6)Gal(b1-4)GlcNAc(b1-2)Man(a1-6)[GlcNAc(b1-2)Man(a1-3)]Man(b1-4)GlcNAc(b1-4)GlcNAc
# In short: as §1
# [16] = target: Neu5Ac(a2-6)Gal(b1-4)GlcNAc(b1-2)Man(a1-6)[Man(a1-3)]Man(b1-4)GlcNAc(b1-4)GlcNAc
# In short: as §1
# [17] = target: Neu5Ac(a2-6)Gal(b1-4)GlcNAc(b1-2)[Neu5Ac(a2-6)Gal(b1-4)GlcNAc(b1-4)]Man(a1-3)[GlcNAc(b1-4)][Neu5Ac(a2-6)Gal(b1-4)GlcNAc(b1-2)[Neu5Ac(a2-6)Gal(b1-4)GlcNAc(b1-6)]Man(a1-6)]Man(b1-4)GlcNAc(b1-4)GlcNAc
# In short: as §1
# [18] = target: Neu5Ac(a2-6)Gal(b1-4)GlcNAc(b1-2)[Neu5Ac(a2-6)Gal(b1-4)GlcNAc(b1-4)]Man(a1-3)[GlcNAc(b1-4)][Neu5Ac(a2-6)Gal(b1-4)GlcNAc(b1-4)Man(a1-6)]Man(b1-4)GlcNAc(b1-4)GlcNAc
# In short: as §1
# [19] = target: Neu5Ac(a2-6)Gal(b1-4)GlcNAc(b1-2)[Neu5Ac(a2-6)Gal(b1-4)GlcNAc(b1-6)]Man(a1-6)[Neu5Ac(a2-6)Gal(b1-4)GlcNAc(b1-2)Man(a1-3)][GlcNAc(b1-4)]Man(b1-4)GlcNAc(b1-4)GlcNAc
# In short: as §1
# [20] = target: Neu5Ac(a2-6)Gal(b1-4)GlcNAc(b1-3)Gal(b1-3)GlcNAc
# In short: as §1
# [21] = target: Neu5Ac(a2-6)Gal(b1-4)GlcNAc(b1-3)Gal(b1-4)GlcNAc
# In short: as §1
# [22] = target: Neu5Ac(a2-6)Gal(b1-4)GlcNAc(b1-3)Gal(b1-4)GlcNAc(b1-2)Man(a1-3)[Neu5Ac(a2-6)Gal(b1-4)GlcNAc(b1-3)Gal(b1-4)GlcNAc(b1-2)Man(a1-6)]GalNAc
# In short: as §1
# [23] = target: Neu5Ac(a2-6)Gal(b1-4)GlcNAc(b1-3)Gal(b1-4)GlcNAc(b1-3)Gal(b1-4)GlcNAc
# In short: as §1
# [24] = target: Neu5Ac(a2-6)Gal(b1-4)GlcNAc(b1-3)Gal(b1-4)GlcNAc(b1-3)Gal(b1-4)GlcNAc(b1-2)Man(a1-3)[Neu5Ac(a2-6)Gal(b1-4)GlcNAc(b1-3)Gal(b1-4)GlcNAc(b1-3)Gal(b1-4)GlcNAc(b1-2)Man(a1-6)]GalNAc
# In short: as §1
# [25] = target: Neu5Ac(a2-6)Gal(b1-4)GlcNAc(b1-3)Gal(b1-4)GlcNAc(b1-3)GalNAc
# In short: as §1
# [26] = target: Neu5Ac(a2-6)Gal(b1-4)GlcNAc(b1-3)Gal(b1-4)GlcNAc(b1-3)[Neu5Ac(a2-6)Gal(b1-4)GlcNAc(b1-3)Gal(b1-4)GlcNAc(b1-6)]GalNAc
# In short: as §1
# [27] = target: Neu5Ac(a2-6)Gal(b1-4)GlcNAc(b1-3)Gal(b1-4)GlcNAc(b1-6)[Gal(b1-3)]GalNAc
# In short: as §1
# [28] = target: Neu5Ac(a2-6)Gal(b1-4)GlcNAc(b1-3)Gal(b1-4)[Fuc(a1-3)]GlcNAc(b1-3)Gal(b1-4)[Fuc(a1-3)]GlcNAc
# In short: as §1
# [29] = target: Neu5Ac(a2-6)Gal(b1-4)GlcNAc(b1-3)GalNAc
# In short: as §1
# [30] = target: Neu5Ac(a2-6)Gal(b1-4)GlcNAc(b1-3)[Neu5Ac(a2-6)Gal(b1-4)GlcNAc(b1-6)]GalNAc
# In short: as §1
# [31] = target: Neu5Ac(a2-6)Gal(b1-4)GlcNAc(b1-6)GalNAc
# In short: as §1
# [32] = target: Neu5Ac(a2-6)Gal(b1-4)GlcNAc(b1-6)[Gal(b1-3)GlcNAc(b1-3)]Gal(b1-4)Glc
# In short: as §1
# [33] = target: Neu5Ac(a2-6)Gal(b1-4)GlcNAc(b1-6)[Gal(b1-3)]GalNAc
# In short: as §1
# [34] = target: Neu5Ac(a2-6)Gal(b1-4)GlcNAc6S
# In short: as §1
# [35] = target: Neu5Ac(a2-6)GalNAc
# In short: as §1
# [36] = target: Neu5Ac(a2-6)GalNAc(b1-4)GlcNAc
# In short: as §1
# [37] = target: Neu5Ac(a2-6)GalNAc(b1-4)GlcNAc6S
# In short: as §1
# [38] = target: Neu5Ac(a2-6)GlcNAc(b1-4)GlcNAc
# In short: as §1
binder,measurement,setting,value
PX9937F-bfa-516-16-516 (Bacteroides fragilis) (protein) LDIDPTSSIADSNYWKTEAQFSTFNVGLHALLRECSFNFFLLGEPRADIYGDVPFGGEATQGMERLPFNTINKENTGISNFAGMYKVINQINLMIAKTKETTVLSEAGKNYYLGEAYGMRAYLYFHLLRSWGDVILYLDYTNGASLDLSNLSKAASPAEEVMKQIKEDITASEKGFGSDYSFKYGRYYWSMAATQMLKGEVYLWSGRQMGGGTADYTTAKTALQSIVSNANVSLQDDFSKVFAYNNKDNSEIIFSIRNAKDEYNMWDDRFRQNLVPQQAYMTSTYCNKEGVSFKDLPEGQLNGLIRLQIRYDLYNKAFRDGDTRKDASMTAVYQKQQDGTVKYIAPFCNKYQGVLLDGASQRSFLNDYPIYRYADCLLLLAEAKALLGEDPTAEINQVRERAYGKEFFEANKATLAYPNDKGDFYTDNKYMSGDEDPLEAILKERMREFMFEGKRWYDLRLLGADYVTKRTSAVATRLLWPINESVLTDNPALKQTPGYQN,glycan array binding signal (z-score),[1],-0.348
same,glycan array binding signal (z-score),[2],0.133
same,glycan array binding signal (z-score),[3],-0.083
same,glycan array binding signal (z-score),[4],-0.194
same,glycan array binding signal (z-score),[5],0.091
same,glycan array binding signal (z-score),[6],-0.251
same,glycan array binding signal (z-score),[7],-0.019
same,glycan array binding signal (z-score),[8],-0.425
same,glycan array binding signal (z-score),[9],-0.23
same,glycan array binding signal (z-score),[10],-0.219
same,glycan array binding signal (z-score),[11],0.28
same,glycan array binding signal (z-score),[12],-0.009
same,glycan array binding signal (z-score),[13],1.35
same,glycan array binding signal (z-score),[14],-0.217
same,glycan array binding signal (z-score),[15],0.354
same,glycan array binding signal (z-score),[16],0.046
same,glycan array binding signal (z-score),[17],-0.095
same,glycan array binding signal (z-score),[18],0.207
same,glycan array binding signal (z-score),[19],-0.153
same,glycan array binding signal (z-score),[20],-0.221
same,glycan array binding signal (z-score),[21],-0.312
same,glycan array binding signal (z-score),[22],-0.072
same,glycan array binding signal (z-score),[23],-0.435
same,glycan array binding signal (z-score),[24],0.284
same,glycan array binding signal (z-score),[25],-0.249
same,glycan array binding signal (z-score),[26],-0.28
same,glycan array binding signal (z-score),[27],-0.215
same,glycan array binding signal (z-score),[28],-0.008
same,glycan array binding signal (z-score),[29],-0.108
same,glycan array binding signal (z-score),[30],1.19
same,glycan array binding signal (z-score),[31],-0.031
same,glycan array binding signal (z-score),[32],-0.015
same,glycan array binding signal (z-score),[33],-0.116
same,glycan array binding signal (z-score),[34],-0.113
same,glycan array binding signal (z-score),[35],-0.134
same,glycan array binding signal (z-score),[36],-0.182
same,glycan array binding signal (z-score),[37],-0.093
same,glycan array binding signal (z-score),[38],-0.159
